Results taken from the RNAGym collection of RNA variant scans (doi:10.7554/elife.90254).
The source gives no read counts; variants with many changes may rest on few reads.

B1: OR4K15 (parent)
chain: GUUAACGGUCAUAGGCCAUGGAAACUAGGAGCACCAUUUCGCUGCCAGUGAAGAAAUGAACAAAGAAAAUCUGGGCCAGGCAGGCAUCAAAAGAAAUAGUCUUGCGCUCAACCAGAAAGUCUGUAAUCAUUUUAAGGGUA

Variants of: B1
Test: self-cleavage, relative activity (ratio to wild type); higher = more cleavage; in vitro, sequencing; the parent is a self-cleaving ribozyme

For A36G U39C A47C A54G A135G, which self-cleavage is on record?
The self-cleavage was 0.87.

Which self-cleavage does the source give for A59U A66G A110U here?
Its self-cleavage is 0.95.

With A62G A78G U108C as the variant, how does the self-cleavage read?
The self-cleavage was 0.02.

Which self-cleavage does the source give for A11G A23G C35U A59G U103C here?
The self-cleavage was 0.25.

For A13U A51G A110G, which self-cleavage is on record?
Its self-cleavage is 0.1.

With A59G A78G A96C U102C as the variant, how does the self-cleavage read?
The self-cleavage was 0.32.

For A11U A24C U39C, which self-cleavage is on record?
The self-cleavage was 0.91.

Which self-cleavage does the source give for U43C A51G A118C here?
The self-cleavage was 0.63.

For A78G G80A U127C, which self-cleavage is on record?
The self-cleavage was 0.12.

With U37C A64G U100C as the variant, how does the self-cleavage read?
The self-cleavage was 2.11.

For U2C A52G A63G A129G, which self-cleavage is on record?
Its self-cleavage is 0.5.

Which self-cleavage does the source give for U9C A11U U39C A64G A89G U102C here?
Its self-cleavage is 1.2.

For A60G A68G U102C, which self-cleavage is on record?
The self-cleavage was 1.4.

With A22G U26C U97A U102C as the variant, how does the self-cleavage read?
The self-cleavage was 1.66.

For A22G U57C U102C, which self-cleavage is on record?
Its self-cleavage is 2.63.

Which self-cleavage does the source give for U43C A66G C105U U127C here?
Its self-cleavage is 0.02.

With A24C C25U A27G as the variant, how does the self-cleavage read?
Its self-cleavage is 1.43.

Which self-cleavage does the source give for A11U C45U A55U A60G A64G A69G U131C here?
The self-cleavage was 0.9.

For U26C A94G U100C, which self-cleavage is on record?
Its self-cleavage is 2.31.

Which self-cleavage does the source give for A30G U43A A117G here?
Its self-cleavage is 1.17.

Which self-cleavage does the source give for A94G A116G A126G here?
Its self-cleavage is 0.34.

Which self-cleavage does the source give for A23G A33U C85U here?
Its self-cleavage is 0.23.

For A36U U49C A55U G106A, which self-cleavage is on record?
Its self-cleavage is 0.02.

With U38C U43C A51G A78G A140G as the variant, how does the self-cleavage read?
The self-cleavage was 0.15.

With A11G A36G A59G C81U A125G as the variant, how does the self-cleavage read?
Its self-cleavage is 0.09.

Which self-cleavage does the source give for A5G A47G A78G U102C here?
The self-cleavage was 0.4.

With A11G U49C A86G A140G as the variant, how does the self-cleavage read?
Its self-cleavage is 0.62.

For U38C A51U A54G U87A A90G A92G, which self-cleavage is on record?
Its self-cleavage is 1.44.

Which self-cleavage does the source give for A22G A62U A67G C121G here?
Its self-cleavage is 2.44.

For A59G A78U A117G A140G, which self-cleavage is on record?
The self-cleavage was 0.35.

Which self-cleavage does the source give for A64G A69G U122C here?
The self-cleavage was 1.65.

For A24G A82G A94G A129G, which self-cleavage is on record?
The self-cleavage was 0.81.

Which self-cleavage does the source give for U38C U39A A60G A90G here?
The self-cleavage was 0.48.

For G28U U57C U127A, which self-cleavage is on record?
Its self-cleavage is 2.47.

For A47G A78C U87A A96G U103C, which self-cleavage is on record?
Its self-cleavage is 0.12.

For C17U A22G A36G, which self-cleavage is on record?
The self-cleavage was 1.09.

With A24G A78G U139C as the variant, how does the self-cleavage read?
Its self-cleavage is 0.44.

Which self-cleavage does the source give for A5U A56G A64G A82G here?
Its self-cleavage is 0.26.

Which self-cleavage does the source give for U12C A51G A62U G73U here?
The self-cleavage was 0.21.

Which self-cleavage does the source give for G75A A86G A95U here?
The self-cleavage was 0.13.

For A54G C71A A129G, which self-cleavage is on record?
The self-cleavage was 0.18.

With A18G G48A A69G A95G as the variant, how does the self-cleavage read?
The self-cleavage was 0.88.

For A22G A66U U87C A126G, which self-cleavage is on record?
The self-cleavage was 0.68.

For A24G A33G A55G A67G A94G U100C, which self-cleavage is on record?
The self-cleavage was 1.9.

With A36U U49C U127A as the variant, how does the self-cleavage read?
Its self-cleavage is 2.11.

For A11C G20U U38C U103C, which self-cleavage is on record?
Its self-cleavage is 1.24.

For U2C A68G U108C, which self-cleavage is on record?
The self-cleavage was 0.03.

With U72A A91G U120C as the variant, how does the self-cleavage read?
The self-cleavage was 0.07.

For A78G A82U A86G U122C G123A, which self-cleavage is on record?
Its self-cleavage is 0.07.

Which self-cleavage does the source give for U39C A56G A91U A95U here?
Its self-cleavage is 1.86.

With A5G A56G A60G C76U A78G U122C as the variant, how does the self-cleavage read?
Its self-cleavage is 0.14.

Which self-cleavage does the source give for A23G A24G A89G A94G A114G A126G here?
Its self-cleavage is 0.23.

With A33G U38A C45U U70C U102C U131C G138U as the variant, how does the self-cleavage read?
Its self-cleavage is 0.71.

Which self-cleavage does the source give for A54G A78U A89G U132C here?
Its self-cleavage is 0.08.

Which self-cleavage does the source give for G31A U38C A64G here?
The self-cleavage was 2.3.

With A55G G73A U103A A117G A140G as the variant, how does the self-cleavage read?
Its self-cleavage is 0.01.

Which self-cleavage does the source give for A33G U49C A92G A116G A117U here?
The self-cleavage was 0.14.

For A30C A59U A63C, which self-cleavage is on record?
Its self-cleavage is 2.38.

Which self-cleavage does the source give for A56G U57C A95G A98G here?
The self-cleavage was 1.46.

With U39C U70C U122C as the variant, how does the self-cleavage read?
Its self-cleavage is 0.13.

Which self-cleavage does the source give for U2C A56G A78U here?
The self-cleavage was 0.07.

With G41A A52G A60G A117G as the variant, how does the self-cleavage read?
Its self-cleavage is 1.

Which self-cleavage does the source give for U26A U49C A56G here?
The self-cleavage was 1.12.

Which self-cleavage does the source give for A23G U39A U87C here?
Its self-cleavage is 1.25.

Which self-cleavage does the source give for U2C U19C A55G here?
Its self-cleavage is 0.07.

Which self-cleavage does the source give for A23U G79A U87C A94G here?
The self-cleavage was 0.11.

For U43C A60G A82C, which self-cleavage is on record?
The self-cleavage was 0.13.

Which self-cleavage does the source give for G28U A56G A59G U70C here?
Its self-cleavage is 0.72.

Which self-cleavage does the source give for A22G A52G A60G here?
The self-cleavage was 1.61.

With A5U A24G U38A A63G A69U U108C as the variant, how does the self-cleavage read?
Its self-cleavage is 0.12.

Which self-cleavage does the source give for C6U A60G A140G here?
The self-cleavage was 0.48.

For A24G G31C A33G, which self-cleavage is on record?
The self-cleavage was 1.15.

With A52G A68G A86G A116G A129G U139A as the variant, how does the self-cleavage read?
The self-cleavage was 0.47.

With A22G A90G U102A as the variant, how does the self-cleavage read?
Its self-cleavage is 0.4.

With A23G A30G A69C as the variant, how does the self-cleavage read?
The self-cleavage was 1.05.

With C45U A62C A82G A110G A126G as the variant, how does the self-cleavage read?
Its self-cleavage is 0.01.

Which self-cleavage does the source give for A18G U100C U131C here?
The self-cleavage was 2.37.

With U2C C35U A117G U127C as the variant, how does the self-cleavage read?
The self-cleavage was 0.4.

Which self-cleavage does the source give for A116G U120C A140U here?
Its self-cleavage is 0.17.

With A22G A91G A95G as the variant, how does the self-cleavage read?
Its self-cleavage is 1.39.

With U9A A86G U102C as the variant, how does the self-cleavage read?
The self-cleavage was 1.57.

With A22U A24G A30G A114U A140U as the variant, how does the self-cleavage read?
The self-cleavage was 0.18.

With A54G C107G U108C A114U A126G as the variant, how does the self-cleavage read?
Its self-cleavage is 0.
